Assay results taken from publication PMC5892938.
The other results are listed elsewhere or left out. At the low end of the ranking the order means little.
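Also: DESeq read counts versus GST-SBP nonspecific binding control pulldown.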

What follows are sequences tested against GST-SBP-SLBP (stem-loop binding protein) (UniProt Q14493) (assay: targeted RNA Bind-n-Seq). Conditions: RBNS binding buffer: 25 mM Tris pH 7.5, 150 mM KCl, 3 mM MgCl2, 0.1% Tween, 0.5 mg/mL BSA, 1 mM DTT; 27 nM protein, 750 pM RNA pool; temperature not stated; high values mean tight binding.
Sequence “GGUCACGUCUCAAUCAACUCUUUUCCAGGAGUUUUCUCCUGUUAUGUCAACAGCUCGCAGUCAAG” has a binding signal (log2 fold change) of 0.00957.
“GGUCACGUCUCAAUCAACUCUUCCUCCAGGGAAAGCCCUGGCUUUUUCAACAGCUCGCAGUCAAG” gave a binding signal (log2 fold change) of 0.0355.
“GGUCACGUCUCAAUCAACUCUAUUUCAGGAGUUUUCUCCUGCAUUUUCAACAGCUCGCAGUCAAG” was tested, and the binding signal (log2 fold change) was -0.0466.
In the case of “GGUCACGUCUCAAUCAACUCUCCAGAGGGGGGGAAAACCCCUUUGCCCUCCAAAUCAACAGCUCGCAGUCAAG”, the binding signal (log2 fold change) is reported as 0.296.
In the case of “GGUCACGUCUCAAUCAACUCUAGUCCAGGAGUUUACUCCUGUUUAUUCAACAGCUCGCAGUCAAG”, the binding signal (log2 fold change) is reported as 0.313.
“GGUCACGUCUCAAUCAACUCAUUCUCAGGAGUUUACUCCUGCUUUGUCAACAGCUCGCAGUCAAG” was tested, and the binding signal (log2 fold change) was 0.0546.
In the case of “GGUCACGUCUCAAUCAACUCAUCCUCCAGGGAAAGCCCUGGCUUACUCAACAGCUCGCAGUCAAG”, the binding signal (log2 fold change) is reported as -0.151.
In the case of “GGUCACGUCUCAAUCAACUCUUUUUCCAGGGAAACCCCUGGCUAAUUCAACAGCUCGCAGUCAAG”, the binding signal (log2 fold change) is reported as -0.0162.
For “GGUCACGUCUCAAUCAACUCAUCGCCAGGAGUUUCCUCCUGUUUACUCAACAGCUCGCAGUCAAG”, the binding signal (log2 fold change) was 0.238.
“GGUCACGUCUCAAUCAACUCUUUCCCCAGGGAAAACCCUGGCAAACUCAACAGCUCGCAGUCAAG” showed a binding signal (log2 fold change) of -0.0981.
Sequence “GGUCACGUCUCAAUCAACUCAAUCUCCAGGGAAAACCCUGGCUAUCUCAACAGCUCGCAGUCAAG” has a binding signal (log2 fold change) of -0.135.
Work on “GGUCACGUCUCAAUCAACUCUAUGGCAGGAGUUUACUCCUGGAAAUUCAACAGCUCGCAGUCAAG” yielded a binding signal (log2 fold change) of 0.0366.
“GGUCACGUCUCAAUCAACUCAUUUUCAGGAGUUUGCUCCUGUAAUUUCAACAGCUCGCAGUCAAG” showed a binding signal (log2 fold change) of 0.249.
In the case of “GGUCACGUCUCAAUCAACUCUAUCCCCAGGGAAAUCCCUGGUUAAUUCAACAGCUCGCAGUCAAG”, the binding signal (log2 fold change) is reported as -0.163.
Sequence “GGUCACGUCUCAAUCAACUCAAUUCCAGGAGUUUACUCCUGUUAAUUCAACAGCUCGCAGUCAAG” has a binding signal (log2 fold change) of -0.0372.
Sequence “GGUCACGUCUCAAUCAACUCUUUCCCCAGGGAAAGCCCUGGCAUAUUCAACAGCUCGCAGUCAAG” has a binding signal (log2 fold change) of -0.0742.
With “GGUCACGUCUCAAUCAACUCAUUUUCCAGGGAAAGCCCUGGCAGUCUCAACAGCUCGCAGUCAAG” the binding signal (log2 fold change) was -0.188.
For “GGUCACGUCUCAAUCAACUCUUCUUCCAGGGAAAUCCCUGGCAUGUUCAACAGCUCGCAGUCAAG”, the binding signal (log2 fold change) was -0.0837.
With “GGUCACGUCUCAAUCAACUCUUUCCCCAGGGAAAACCCUGGUAUUCUCAACAGCUCGCAGUCAAG” the binding signal (log2 fold change) was 0.178.
With “GGUCACGUCUCAAUCAACUCUAUCCCAGGAGUUUUCUCCUGUAUUUUCAACAGCUCGCAGUCAAG” the binding signal (log2 fold change) was -0.119.
“GGUCACGUCUCAAUCAACUCUAACGAGGGGGGGAAAACCCCUUUACCCUCUACAUCAACAGCUCGCAGUCAAG” was tested, and the binding signal (log2 fold change) was -0.091.
With “GGUCACGUCUCAAUCAACUCCCAAGAGGGGGGGAAAACCCCUUUACCCUCCAAUUCAACAGCUCGCAGUCAAG” the binding signal (log2 fold change) was -0.052.
In the case of “GGUCACGUCUCAAUCAACUCUUCUCCAGGAGUUUACUCCUGCAAUCUCAACAGCUCGCAGUCAAG”, the binding signal (log2 fold change) is reported as -0.0321.
With “GGUCACGUCUCAAUCAACUCUUCCUCAGGAGUUUCCUCCUGUUAAUUCAACAGCUCGCAGUCAAG” the binding signal (log2 fold change) was -0.0711.
“GGUCACGUCUCAAUCAACUCUUCUCCAGGAGUUUCCUCCUGUAUUCUCAACAGCUCGCAGUCAAG” gave a binding signal (log2 fold change) of -0.0369.
“GGUCACGUCUCAAUCAACUCUUUUCCCAGGGAAACCCCUGGUAAUCUCAACAGCUCGCAGUCAAG” was tested, and the binding signal (log2 fold change) was 0.108.
“GGUCACGUCUCAAUCAACUCUUCUUCAGGAGUUUACUCCUGCAAUCUCAACAGCUCGCAGUCAAG” was tested, and the binding signal (log2 fold change) was -0.0236.
“GGUCACGUCUCAAUCAACUCAUUCGAGGGGGGGAAAACCCCUUUACCCUCAACCUCAACAGCUCGCAGUCAAG” showed a binding signal (log2 fold change) of 0.208.
Sequence “GGUCACGUCUCAAUCAACUCUAAAGAGGGGGGGAAAACCCCUUUACCCUCAAUGUCAACAGCUCGCAGUCAAG” has a binding signal (log2 fold change) of 0.277.
With “GGUCACGUCUCAAUCAACUCAUCCCCAGGAGUUUCCUCCUGUAUUCUCAACAGCUCGCAGUCAAG” the binding signal (log2 fold change) was 0.141.
Sequence “GGUCACGUCUCAAUCAACUCUUCAGAGGGGGGGAAAACCCCUUUACCCUCGUCCUCAACAGCUCGCAGUCAAG” has a binding signal (log2 fold change) of -0.111.
With “GGUCACGUCUCAAUCAACUCUUUCUCAGGAGUUUACUCCUGCUAAUUCAACAGCUCGCAGUCAAG” the binding signal (log2 fold change) was -0.0714.
For “GGUCACGUCUCAAUCAACUCUUCUUCCAGGGAAAUCCCUGGUUUUUUCAACAGCUCGCAGUCAAG”, the binding signal (log2 fold change) was -0.269.
“GGUCACGUCUCAAUCAACUCUCUAGAGGGGGGGAAAACCCCUUUGCCCUCCAUGUCAACAGCUCGCAGUCAAG” showed a binding signal (log2 fold change) of -0.575.
Sequence “GGUCACGUCUCAAUCAACUCUAUCUCAGGAGUUUACUCCUGUUAUCUCAACAGCUCGCAGUCAAG” has a binding signal (log2 fold change) of 0.162.
In the case of “GGUCACGUCUCAAUCAACUCUUAAGAGGGGGGGAAAACCCCUUUACCCUCGCCUUCAACAGCUCGCAGUCAAG”, the binding signal (log2 fold change) is reported as 0.0688.
In the case of “GGUCACGUCUCAAUCAACUCUUUUUCCAGGGAAAACCCUGGCUAUUUCAACAGCUCGCAGUCAAG”, the binding signal (log2 fold change) is reported as 0.0486.
In the case of “GGUCACGUCUCAAUCAACUCUUUAGAGGGGGGGAAAACCCCUUUGCCCUCACCGUCAACAGCUCGCAGUCAAG”, the binding signal (log2 fold change) is reported as -0.311.
“GGUCACGUCUCAAUCAACUCUUACGAGGGGGGGAAAACCCCUUUACCCUCUCAAUCAACAGCUCGCAGUCAAG” showed a binding signal (log2 fold change) of -0.0643.
“GGUCACGUCUCAAUCAACUCCCUGGAGGGGGGGAAAACCCCUUUACCCUCAUAUUCAACAGCUCGCAGUCAAG” gave a binding signal (log2 fold change) of -0.118.
“GGUCACGUCUCAAUCAACUCAAUUUCAGGAGUUUACUCCUGUAUACUCAACAGCUCGCAGUCAAG” showed a binding signal (log2 fold change) of -0.00414.
Sequence “GGUCACGUCUCAAUCAACUCUUUCCCCAGGGAAAACCCUGGCAUACUCAACAGCUCGCAGUCAAG” has a binding signal (log2 fold change) of -0.0541.
“GGUCACGUCUCAAUCAACUCAACUCCAGGAGUUUCCUCCUGUUAUUUCAACAGCUCGCAGUCAAG” gave a binding signal (log2 fold change) of -0.12.
In the case of “GGUCACGUCUCAAUCAACUCAAUCGAGGGGGGGAAAACCCCUUUACCCUCUUCAUCAACAGCUCGCAGUCAAG”, the binding signal (log2 fold change) is reported as 0.277.
Sequence “GGUCACGUCUCAAUCAACUCUUUUCCCAGGGAAAGCCCUGGCAUUUUCAACAGCUCGCAGUCAAG” has a binding signal (log2 fold change) of -0.0609.
Work on “GGUCACGUCUCAAUCAACUCAUCCUCCAGGGAAAACCCUGGUAUAUUCAACAGCUCGCAGUCAAG” yielded a binding signal (log2 fold change) of 0.00412.
“GGUCACGUCUCAAUCAACUCUUUCUCCAGGGAAAACCCUGGUAAUUUCAACAGCUCGCAGUCAAG” showed a binding signal (log2 fold change) of -0.0355.
